The structures appear in SMILES notation. Several values for one entry are separate records, joined by “and”; a condition that tells them apart may be missing. Identical values can stand only once. This is one part of the list. Shown are side measurements of this screen, not its main read-out; they come without a call.

Common to all, as to test: Primary Screen for Target Class Profiling of Small Molecule Inhibitors of Methyltransferases
Assay [1] concerns the target Glycine N-methyltransferase (Homo sapiens) (UniProt Q14749). The following applies: purified enzyme, MTase-Glo SAH luminescence; measured here: GNMT inhibition; at 40 µM; stronger effect = lower value. An outline of the steps:
(§1)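 Each enzyme was assayed with SAM and its substrate. SAH formation detected by MTase-Glo luminescence; single-point 40 uM screen[…].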

The target in assay [2] is Guanidinoacetate N-methyltransferase (Homo sapiens) (UniProt Q14353). The following applies: purified enzyme, MTase-Glo SAH luminescence; measured here: GAMT inhibition; at 40 µM; stronger effect = lower value. An outline of the steps:
as §1

Assay [3] concerns the target Histamine N-methyltransferase (Homo sapiens) (UniProt P50135). The following applies: purified enzyme, MTase-Glo SAH luminescence; measured here: HNMT inhibition; at 40 µM; stronger effect = lower value. An outline of the steps:
as §1

For assay [4], the target named is Nicotinamide N-methyltransferase (Homo sapiens) (UniProt P40261). The note with it: purified enzyme, MTase-Glo SAH luminescence; measured here: NNMT inhibition; at 40 µM; stronger effect = lower value. An outline of the steps:
as §1

Assay [5] addresses Phenylethanolamine N-methyltransferase (Homo sapiens) (UniProt P11086). The following applies: purified enzyme, MTase-Glo SAH luminescence; measured here: PNMT inhibition; at 40 µM; stronger effect = lower value. An outline of the steps: as §1
% is set by controls: 0 for no effect and ±100 for the full control effect.

`CCCn1c(=O)c2ccc(C(=O)NC(C)C)cc2n2c(=O)n(CC(=O)c3cc(C)ccc3C)nc12`: the activity change, negative = inhibition was 6.11% in assay [1]; 0.406% in assay [2]; 12.1% in assay [3]; 4.44% in assay [4]; 7.33% in assay [5].

Turning to `Cc1ccc(CN2C(=O)c3nc4ccccc4n3CC2(C)C(=O)NC2CCCCC2C)cc1` (stereo not given), the activity change, negative = inhibition in assay [1] was 1.3%; in assay [2] it was 3%; in assay [3], 5.74%; in assay [4] it was 5.29%; in assay [5], -0.581%.

Consider `Cc1cnc(C(=O)N2CCCCCNC(=O)[C@@H]3CCC[C@@H]32)cn1`, for which the activity change, negative = inhibition in assay [1] was -2.44%; in assay [2] it was -2.12%; in assay [3], -1.58%; in assay [4], -2.67%; in assay [5], 5.17%.

As to `CCC(C)NC(=O)c1ccc2c(=O)n(C3CC3)c3nn(CC(=O)NC4CCCC4)c(=O)n3c2c1` (stereo not given), the activity change, negative = inhibition in assay [1] is 7.42%; in assay [2], 0%; in assay [3], 12.3%; in assay [4], 3.63%; in assay [5], 5.98%.

Take `CN(Cc1ccccc1CN1CCCC1)C(=O)C1CC2(CCNCC2)CN1C` (stereo not given): the activity change, negative = inhibition in assay [1] is -1.18%; in assay [2] it was -2.33%; in assay [3], -22.7%; in assay [4] it was -4.26%; in assay [5], -2.91%.

In the case of `COc1ccc2cc3n(c2c1)CC(C)(C(=O)NC1CCCC1)N(c1cccc(Cl)c1)C3=O` (stereo not given), the activity change, negative = inhibition in assay [1] was -0.703%; in assay [2], 0%; in assay [3], 1.71%; in assay [4] it was -2.26%; in assay [5] it was -4.69%.

Turning to `O=C(NCc1cccc(O)c1)c1cc2cc(F)ccc2[nH]1`, the activity change, negative = inhibition is -6.07% in assay [1]; 7.04% in assay [2]; 8.74% in assay [3]; -10.2% in assay [4]; 4.12% in assay [5].

Consider `CCCCCCC(=O)OC1CC(C)(C)NC(C)(C)C1`, for which the activity change, negative = inhibition in assay [1] was 7.39%; in assay [2], 8.4%; in assay [3] it was 10.4%; in assay [4] it was -10.1%; in assay [5], -7.11%.

With `CC(C)OCCCN1C(=O)c2nc3ccccc3n2CC1(C)C(=O)NC1CCCCCC1` (stereo not given), the activity change, negative = inhibition in assay [1] stood at 6.05%; in assay [2], 0%; in assay [3], 11%; in assay [4], 13.2%; in assay [5], 3.73%.

Regarding `CC[C@H]1OC(=O)C[C@@H](O)[C@H](C)[C@@H](O[C@@H]2O[C@H](C)[C@@H](O)[C@H](N(C)C)[C@H]2O)[C@@H](CCN2C[C@H](C)C[C@H](C)C2)C[C@@H](C)C(=O)/C=C/C(C)=C/[C@@H]1CO[C@@H]1O[C@H](C)[C@@H](O)[C@@H](OC)[C@H]1OC`, the activity change, negative = inhibition in assay [1] was 1.77%; in assay [2], 1.23%; in assay [3] it was 0.236%; in assay [4] it was -8.61%; in assay [5] it was -0.652%.

In the case of `CC(C)C(C#N)O[C@@H]1O[C@H](CO[C@@H]2O[C@@H](C)[C@H](O)[C@@H](O)[C@H]2O)[C@@H](O)[C@H](O)[C@H]1O` (stereo not given in full), the activity change, negative = inhibition in assay [1] was 3.09%; in assay [2], 2.01%; in assay [3], 8.84%; in assay [4] it was -10.1%; in assay [5] it was -4.25%.

Consider `COc1ccc(CCN2CCN(CCCc3ccccc3)CC2)cc1OC`, for which the activity change, negative = inhibition was 1.71% in assay [1]; 4.81% in assay [2]; 0.46% in assay [3]; -12.5% in assay [4]; -4.97% in assay [5].

Regarding `O=C1Cc2c([nH]c3ccc(Br)cc23)-c2ccccc2N1`, the activity change, negative = inhibition in assay [1] was 0.521%; in assay [2], 1.64% and 12.3%; in assay [3], 4.88%; in assay [4], -10.1% and -5.1%; in assay [5], -1.06% and 0.505%.

With `Cn1ncc(S(=O)(=O)Cc2ccccc2)c(Br)c1=O`, the activity change, negative = inhibition in assay [1] was 3.43%; in assay [2] it was 12.7%; in assay [3], 11.2%; in assay [4], -13.4%; in assay [5] it was 1.28%.

Take `COc1cc(-c2nnc3n(Cc4ccccc4Cl)c(=O)c4ccccc4n23)ccc1O`: the activity change, negative = inhibition is -11.8% in assay [1]; 1.45% in assay [2]; 3.51% in assay [3]; -1.97% in assay [4]; 0.165% in assay [5].

As for `O=C(CC1=CCCCC1)N1CC(F)(F)C[C@H]1c1nc(C2CC2)no1`, the activity change, negative = inhibition is -0.949% in assay [1]; 0.68% in assay [2]; 1.15% in assay [3]; -6.54% in assay [4]; -2.65% in assay [5].

Regarding `COc1ccccc1N1CCN(CCCCNC(=O)c2ccc(-c3cscn3)cc2)CC1`, the activity change, negative = inhibition in assay [1] is -0.536%; in assay [2] it was -5.64%; in assay [3] it was -20.4%; in assay [4] it was -26.6%; in assay [5], -12.8%.

With `O=C(N[C@H]1CCOC[C@H]1C1CCOCC1)c1ccoc1`, the activity change, negative = inhibition was -0.916% in assay [1]; 4.89% in assay [2]; 2.6% in assay [3]; -1.8% in assay [4]; 15.5% in assay [5].

`Cc1cccc2[nH]c(CN(C)C(=O)c3ccc(CCC(C)(C)O)cc3)nc12`: the activity change, negative = inhibition in assay [1] is -1.7%; in assay [2], -2.73%; in assay [3] it was -0.625%; in assay [4], -2.32%; in assay [5], 1.43%.

Regarding `CNCCCC12CCC(c3ccccc31)c1ccccc12`, the activity change, negative = inhibition was -4.12% and -2.71% in assay [1]; 1.09% and 9.71% in assay [2]; 8.94% and 6.33% in assay [3]; -10.6% in assay [4]; 3.09% and -3.77% in assay [5].

With `CCc1ccc(CN2C(=O)c3c(C(=O)OC)ncn3CC2(C)C(=O)NC2CCCC2)cc1` (stereo not given), the activity change, negative = inhibition in assay [1] is -4.42%; in assay [2], 0.069%; in assay [3], 2.3%; in assay [4] it was 0.947%; in assay [5], -1.2%.

As to `NCC1CCN(c2nccc(-c3ccc4ccccc4c3)n2)CC1`, the activity change, negative = inhibition in assay [1] was -9.76%; in assay [2], 4.42%; in assay [3], -6.74%; in assay [4] it was -14.4%; in assay [5] it was -3.1%.

As to `CCOC(=O)CCNc1cc(N2CCc3ccccc3CC2)nc(-c2cccnc2)n1`, the activity change, negative = inhibition was 3.18% in assay [1]; 4.63% in assay [2]; 8.29% in assay [3]; -10.6% in assay [4]; 1.05% in assay [5].

Consider `COc1ccc(N2C(=O)c3cc4ccc(OC)cc4n3CC2(C)C(=O)NC2CCCC2)c(OC)c1` (stereo not given), for which the activity change, negative = inhibition in assay [1] was -10.1%; in assay [2], 0%; in assay [3], -2.73%; in assay [4], -19.6%; in assay [5], -4.29%.

Regarding `Cc1ccc(N2CCN(S(=O)(=O)c3cc4[nH]c(=O)[nH]c4cc3Cl)CC2)c(C)c1`, the activity change, negative = inhibition was found to be 14.4% in assay [1]; 0% in assay [2]; 13.2% in assay [3]; 4.32% in assay [4]; 7.01% in assay [5].

Turning to `Cc1ccc(CN2C(=O)c3nc4ccccc4n3CC2(C)C(=O)NC2CCCC(C)C2C)cc1` (stereo not given), the activity change, negative = inhibition is -4.11% in assay [1]; 4.78% in assay [2]; -2.45% in assay [3]; -11.6% in assay [4]; -2.37% in assay [5].

Consider `COc1ccc(OC)c(CN2C(=O)c3ccc(-c4ccco4)n3CC2(C)C(=O)NCc2ccccc2)c1` (stereo not given), for which the activity change, negative = inhibition is -1.57% in assay [1]; 5.38% in assay [2]; -3.64% in assay [3]; -1.73% in assay [4]; -4.49% in assay [5].

Consider `C=CC1C(OC2OC(CO)C(O)C(O)C2O)OC=C(C(=O)OC)C1CC(=O)OCC1C(C)C(O)CC1C(CO)COC(=O)CC1C(C(=O)O)=COC(OC2OC(CO)C(O)C(O)C2O)/C1=C\C` (stereo not given), for which the activity change, negative = inhibition in assay [1] was 2.61%; in assay [2], -0.696%; in assay [3], 12%; in assay [4], -13.2%; in assay [5], -8.07%.

As to `CCCn1c(=O)c2cc(F)ccc2n2c(SCC(=O)Nc3ccccc3OC)nnc12`, the activity change, negative = inhibition in assay [1] amounted to 1.36%; in assay [2], 1.06%; in assay [3] it was 13.5%; in assay [4], 1.74%; in assay [5] it was 8.9%.

The values are drawn from PubChem BioAssay AID1745853 (National Center for Advancing Translational Sciences (NCATS), 2022).
